Laboratory results: the RNAGym collection of RNA variant scans (doi:10.1073/pnas.2313332121)
Variants at the background level are over-represented here.

B1: TPR 5TU (parent)
chain: GGAUCUUCUCGAUCUAACAAAAAAGACAAAUCUGCCACAAAGCUUGAGAGCAUCUUCGGAUGCAGAGGCGGCAGCCUUCGGUGGCGCGAUAGCGCCAACGUUCUCAACUAUGACACGCAAAACGCGUGCUCCGUUGAAUGGAGUUUAUCAUG

Variants of: B1
Assay: polymerase ribozyme fitness, log enrichment relative to wild type (log ratio); higher = more active; in vitro selection for triplet polymerase activity
How it was run: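 Libraries of mutants in each subunit of a heterodimeric triplet polymerase ribozyme were generated by PCR and transcribed. In triplicate, each went through one in vitro selection round: annealing with biotinylated primer, partner subunit and triplets; frozen incubation at −7 °C; gel excision of extended constructs; streptavidin-bead capture; RT-PCR. Fitness, taken from Illumina sequencing of input and output libraries, is the logarithm of a genotype's enrichment over wild-type enrichment, averaged across replicates with inverse-variance weights. The logarithm is base 2, and genotypes needed ≥10 input reads and ≥1 read per output to be kept.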

| Variant | polymerase ribozyme fitness (log ratio) |
| --- | --- |
| GGAUCUUCUCGAUCUAACAAAAAAGACAAAUCUGCCACAAAGCUUGAGAGUAUCUUCGGAUGCAGUGGCGGCAGCCUUCGGUGGCGAGAUAGCGCCAACGUUCUCAACUAUGACACGGAAAACGCGUGCUCCGUUGAAUGGAGUUUAUCAUG [C51U A66U C87A C118G] | ≤ -4.2 |
| GGAUCUUCUCGAUCUAACAAAAAAGACAAAUCUGCCACAAAGCUUGAGAGUAUCUUCGGAUGCAGAGGCGGCAGCCUUCGGUGGCGAGAUAGCGCCAACGUUCUCAACUAUGACACGCAUAACGCAUGCUCCGUUGAAUGGAGUUUAUCAUG [C51U C87A A120U G126A] | ≤ -4.2 |
| GGAUCUUCUCGAUCUAACAAAAAAGACAAAUCUGCCACAAAGCUUGAGAGUAUCUUCGGAUGCAGAGGCGGCAGUCUUCGGUGGCGCGAUAGCGCUAACGUUCUCAACUAUGACACGCAAAACGCGUGCUCCGUUGAAUGGACUUUAUCAUG [C51U C75U C96U G143C] | -4.11 |
| GGAUCUUCUCGAUCUAACAAAAAAGACAAAUCUGCCACAAAGCUUGAGAGUAUCUUCGGAUGCAGAGGCGGCAGCCUUCGGUGGCGCGAUGGCGCCAACAUUCUCAACUUUGACACGCAAUACGCGUGCUCCGUUGAAUGGAGUUUAUCAUG [C51U A91G G100A A110U A121U] | ≤ -4.2 |
| GGAUCUUCUCGAUCUAACAAAAAAGACAAAUCUGCCACAAAGCUUGAGAGUCUGUUCGGAAGCAGAGGCGGCAGACUUCGGUGGCGCGAUAGCGCCAACGUUCUCAACUAUGACACGCAAAACGCGUGCUCCGUUGAAUGCGGUUUAUCAUG [C51U A52C C54G U61A C75A G141C A142G] | ≤ -4.2 |
| GGAUCUUCUCGAUCUAACAAAAAAGACAAAUCUGCCACAAAGCUUGAGAGUGUCUUCGGAUGCACAGGCGGCAGCCUUCGGUGGAGUGAUAGCGCCAACGUUCUCAACUAUGACACGCAAAACGCGUGCUCCGUUGAAUGGAGUUUUUCAUG [C51U A52G G65C C85A C87U A147U] | ≤ -4.2 |
| GGAUCUUCUCGAUCUAACAAAAAAGACAAAUCUGCCACAAAGCUUGAGAGUAUGUUCGGAUGCAGAGGCGGCAGCCUUCGGUGGAGCGCUAGCGCCAACGUUGUCAACUAUGAAACGCAAAACGCGUGCUCCAUUGAAUGGAGUUUAUCAUG [C51U C54G C85A A89C C103G C114A G133A] | ≤ -4.2 |
| GGAUCUUCUCGAUCUAACAAAAAAGACAAAUCUGCCACAAAGCUUGAGAGUCUCGCCGGAUGCAGAGGCGGCAGCCUUCGGUGGCGCGAUAGCGCCAACGUUCUCAACUAUGAAACGCAAAACGCGUGCUCCGUUGAAUGGAGUUUAUCAUG [C51U A52C U55G U56C C114A] | ≤ -4.2 |
| GGAUCUUCUCGAUCUAACAAAAAAGACAAAUCUGCCACAAAGCUUGAGAGUAUGUUCGGAUGCAGAGGCGGCAGCCUUCGGUGGCGCGAUAGCGCCAACGUUCUCAACUAUGACACGCAAAACGCGUGCUCCGUUGAAUCGAGUUUAUCGUG [C51U C54G G140C A150G] | ≤ -4.2 |
| GGAUCUUCUCGAUCUAACAAAAAAGACAAAUCUGCCACAAAGCUUGAGAGUAUCUUCGGAUGCAGAGGGGGCAGCCUUCGGUGGCGCGAUAGCCCCAACGUUCUCAACUAUGACACGCAAAACGCGUGCUCCGUUGAAUGGAGUUCAUCAUG [C51U C69G G94C U146C] | -1.9 |
| GGAUCUUCUCGAUCUAACAAAAAAGACAAAUCUGCCACAAAGCUUGAGAGUAUCUUCGGAUGCAGAGGCGGCAGCCUUCGGUGGGGCGAUAGCGCCAACGUUCUCAAGUAUCACACGCAAAACGCGUGCUCCGUUGAACGGAGUUUAUCAUG [C51U C85G C108G G112C U139C] | ≤ -4.2 |
| GGAUCUUCUCGAUCUAACAAAAAAGACAAAUCUGCCACAAAGCUUGAGAGUAUCUUUGGAUGCAGAGGCGGCAGCCUUCGGUGGCGCGAUAGCGCCAACGUUCUCAACUAUGACACGCAACGCGCGUGCUCCGUUUAAUGGAGUUUAACAUG [C51U C57U A121C A122G G136U U148A] | ≤ -4.2 |
| GGAUCUUCUCGAUCUAACAAAAAAGACAAAUCUGCCACAAAGCUUGAGAGUAUCUUCGGAUGCCGAGGCGACAGCCUUCGGUGGAGCGAUAGCGCCAACGUUCUCAAGUAUGACACGCAAAACGCGUGCUCCGUUGAAUGGAGUUUAUCAUG [C51U A64C G71A C85A C108G] | ≤ -4.2 |
| GGAUCUUCUCGAUCUAACAAAAAAGACAAAUCUGCCACAAAGCUUGAGAGUAUCUUCGGAUGCAGAGGCGGCAGCCUUAGGUGGCGGGAUAGCGCCAACGUUCUCAACUAUGACACGCAAAACGCGUGCUCCGUUGAAUGGAAUUUAUCAUG [C51U C79A C87G G143A] | ≤ -4.2 |
| GGAUCUUCUCGAUCUAACAAAAAAGACAAAUCUGCCACAAAGCUUGAGAGUAUGUUCGGAUGCAGAGGCGGCAUCCUUCGGUGGGGCGAUAGCGCCUACGUUCUCAACUAUGACACGCAAAACGCGUGCUCCGUUGAAUGGAGUUUAUCAUG [C51U C54G G74U C85G A97U] | ≤ -4.2 |
| GGAUCUUCUCGAUCUAACAAAAAAGACAAAUCUGCCACAAAGCUUGAGAGUAUCUUCGGAUGCAGAGGCGGCAGCCUUCGGUGGCGCGAUAGCGCCAACGUUCUCACCUAUGACACGCAAAACGCGUGCUCCGUUGAAUGGAGUUUAUCAUG [C51U A107C] | ≤ -4.2 |
| GGAUCUUCUCGAUCUAACAAAAAAGACAAAUCUGCCACAAAGCUUGAGAGUAUCUUAGGAUGCAGAGGCGGCAGCCUUCGGUGGUGCGAUAGCGCCAACGUUCUCAACUAGGACACGCAAAACGCGUGUUCCGUUGAAUGGAGUUUAUCAUG [C51U C57A C85U U111G C129U] | ≤ -4.2 |
| GGAUCUUCUCGAUCUAACAAAAAAGACAAAUCUGCCACAAAGCUUGAGAGUAUCUUCGGAUGCCGAGGCGGCAGCCUUCGGUGGCGCGAUAGCGCCAACGUUCUCAACUAUGAGACGCAAAACGCGUGCUCCGUUGACUGGAGUUUAUCAUG [C51U A64C C114G A138C] | ≤ -4.2 |
| GGAUCUUCUCGAUCUAACAAAAAAGACAAAUCUGCCACAAAGCUUGAGAGUAUCUUCGGAUGCAGAGGCGGCAGCCUUCGGUGGGGCGAUAGCGCCAACGUUCUCGACUAUGACACGCAAAACGCGUGCUCCGUUGAAUGGAGUUUAUCAUG [C51U C85G A106G] | -2.8 |
